# Measurements as given in the supplement of paper PMC8728848.
# The list shows a part of the results.
# B1: PNGase F (Flavobacterium meningosepticum) (protein)
# chain: GIPAPADNTVNIKTFDKVKNAFGDGLSQSAEGTFTFPADVTAVKTIKMFIKNECPNKTCDEWDRYANVYVKNKTTGEWYEIGRFITPYWVGTEKLPRGLEIDVTDFKSLLSGNTELKIYTETWLAKGREYSVDFDIVYGTPDYKYSAVVPVVQYNKSSIDGVPYGKAHTLALKKNIQLPTNTEKAYLRTTISGWGHAKPYDAGSRGCAEWCFRTHTIAINNSNTFQHQLGALGCSANPINNQSPGNWTPDRAGWCPGMAVPTRIDVLNNSLIGSTFSYEYKFQNWTNNGTNGDAFYAISSFVIAKSNTPISAPVVTNLDPHHHHHH
# What was measured:
# Assay in all cases: glycan array binding signal (z-score within array); higher = stronger binding
# Settings in all cases: glycan notation: IUPAC condensed, linker removed
# GlcNAc(b1-3)Gal(b1-4)Glc = target: GlcNAc(b1-3)Gal(b1-4)Glc
# In short: (§1)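 Columns mapping to the same glycan were averaged after glycan names were converted to IUPAC-condensed notation. The data come from 3228 arrays in the Consortium for Functional Glycomics database, limited to those with an available protein sequence. Binding is reported as a within-array Z-score averaged across arrays of one protein sequence and across linkers.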
# [1] = target: GlcNAc(b1-3)Gal(b1-4)GlcNAc
# In short: as §1
# [2] = target: GlcNAc(b1-3)Gal(b1-4)GlcNAc(b1-2)Man(a1-3)[GlcNAc(b1-3)Gal(b1-4)GlcNAc(b1-2)Man(a1-6)]Man(b1-4)GlcNAc(b1-4)GlcNAc
# In short: as §1
# [3] = target: GlcNAc(b1-3)Gal(b1-4)GlcNAc(b1-2)Man(a1-3)[GlcNAc(b1-3)Gal(b1-4)GlcNAc(b1-2)Man(a1-6)]Man(b1-4)GlcNAc(b1-4)[Fuc(a1-6)]GlcNAc
# In short: as §1
# [4] = target: GlcNAc(b1-3)Gal(b1-4)GlcNAc(b1-2)[GlcNAc(b1-3)Gal(b1-4)GlcNAc(b1-6)]Man(a1-6)[GlcNAc(b1-3)Gal(b1-4)GlcNAc(b1-2)Man(a1-3)]Man(b1-4)GlcNAc(b1-4)GlcNAc
# In short: as §1
# [5] = target: GlcNAc(b1-3)Gal(b1-4)GlcNAc(b1-3)Gal(b1-4)GlcNAc
# In short: as §1
# [6] = target: GlcNAc(b1-3)Gal(b1-4)GlcNAc(b1-3)Gal(b1-4)GlcNAc(b1-2)Man(a1-3)[GlcNAc(b1-3)Gal(b1-4)GlcNAc(b1-3)Gal(b1-4)GlcNAc(b1-2)Man(a1-6)]Man(b1-4)GlcNAc(b1-4)GlcNAc
# In short: as §1
# [7] = target: GlcNAc(b1-3)Gal(b1-4)GlcNAc(b1-3)Gal(b1-4)GlcNAc(b1-2)Man(a1-3)[GlcNAc(b1-3)Gal(b1-4)GlcNAc(b1-3)Gal(b1-4)GlcNAc(b1-2)Man(a1-6)]Man(b1-4)GlcNAc(b1-4)[Fuc(a1-6)]GlcNAc
# In short: as §1
# [8] = target: GlcNAc(b1-3)Gal(b1-4)GlcNAc(b1-3)Gal(b1-4)GlcNAc(b1-2)[GlcNAc(b1-3)Gal(b1-4)GlcNAc(b1-3)Gal(b1-4)GlcNAc(b1-6)]Man(a1-6)[GlcNAc(b1-3)Gal(b1-4)GlcNAc(b1-3)Gal(b1-4)GlcNAc(b1-2)Man(a1-3)]Man(b1-4)GlcNAc(b1-4)[Fuc(a1-6)]GlcNAc
# In short: as §1
# [9] = target: GlcNAc(b1-3)Gal(b1-4)GlcNAc(b1-3)Gal(b1-4)GlcNAc(b1-3)Gal(b1-4)GlcNAc(b1-2)Man(a1-3)[GlcNAc(b1-3)Gal(b1-4)GlcNAc(b1-3)Gal(b1-4)GlcNAc(b1-3)Gal(b1-4)GlcNAc(b1-2)Man(a1-6)]Man(b1-4)GlcNAc(b1-4)GlcNAc
# In short: as §1
# [10] = target: GlcNAc(b1-3)Gal(b1-4)GlcNAc(b1-3)Gal(b1-4)GlcNAc(b1-3)Gal(b1-4)GlcNAc(b1-2)Man(a1-3)[GlcNAc(b1-3)Gal(b1-4)GlcNAc(b1-3)Gal(b1-4)GlcNAc(b1-3)Gal(b1-4)GlcNAc(b1-2)Man(a1-6)]Man(b1-4)GlcNAc(b1-4)[Fuc(a1-6)]GlcNAc
# In short: as §1
# [11] = target: GlcNAc(b1-3)Gal(b1-4)GlcNAc(b1-3)Gal(b1-4)GlcNAc(b1-3)Gal(b1-4)GlcNAc(b1-2)[GlcNAc(b1-3)Gal(b1-4)GlcNAc(b1-3)Gal(b1-4)GlcNAc(b1-3)Gal(b1-4)GlcNAc(b1-6)]Man(a1-6)[GlcNAc(b1-3)Gal(b1-4)GlcNAc(b1-3)Gal(b1-4)GlcNAc(b1-3)Gal(b1-4)GlcNAc(b1-2)Man(a1-3)]Man(b1-4)GlcNAc(b1-4)[Fuc(a1-6)]GlcNAc
# In short: as §1
# [12] = target: GlcNAc(b1-3)Gal(b1-4)GlcNAc(b1-3)Gal(b1-4)GlcNAc(b1-3)Gal(b1-4)GlcNAc(b1-3)Gal(b1-4)GlcNAc(b1-2)Man(a1-3)[GlcNAc(b1-3)Gal(b1-4)GlcNAc(b1-3)Gal(b1-4)GlcNAc(b1-3)Gal(b1-4)GlcNAc(b1-3)Gal(b1-4)GlcNAc(b1-2)Man(a1-6)]Man(b1-4)GlcNAc(b1-4)GlcNAc
# In short: as §1
# [13] = target: GlcNAc(b1-3)Gal(b1-4)GlcNAc(b1-3)Gal(b1-4)GlcNAc(b1-3)Gal(b1-4)GlcNAc(b1-3)Gal(b1-4)GlcNAc(b1-2)Man(a1-3)[GlcNAc(b1-3)Gal(b1-4)GlcNAc(b1-3)Gal(b1-4)GlcNAc(b1-3)Gal(b1-4)GlcNAc(b1-3)Gal(b1-4)GlcNAc(b1-2)Man(a1-6)]Man(b1-4)GlcNAc(b1-4)[Fuc(a1-6)]GlcNAc
# In short: as §1
# [14] = target: GlcNAc(b1-3)Gal(b1-4)GlcNAc(b1-3)Gal(b1-4)GlcNAc(b1-3)Gal(b1-4)GlcNAc(b1-3)Gal(b1-4)GlcNAc(b1-2)[GlcNAc(b1-3)Gal(b1-4)GlcNAc(b1-3)Gal(b1-4)GlcNAc(b1-3)Gal(b1-4)GlcNAc(b1-3)Gal(b1-4)GlcNAc(b1-6)]Man(a1-6)[GlcNAc(b1-3)Gal(b1-4)GlcNAc(b1-3)Gal(b1-4)GlcNAc(b1-3)Gal(b1-4)GlcNAc(b1-3)Gal(b1-4)GlcNAc(b1-2)Man(a1-3)]Man(b1-4)GlcNAc(b1-4)[Fuc(a1-6)]GlcNAc
# In short: as §1
# [15] = target: GlcNAc(b1-3)Gal(b1-4)GlcNAc(b1-3)Gal(b1-4)GlcNAc(b1-3)GalNAc
# In short: as §1
# [16] = target: GlcNAc(b1-3)Gal(b1-4)GlcNAc(b1-3)GalNAc
# In short: as §1
# [17] = target: GlcNAc(b1-3)Gal(b1-4)GlcNAc(b1-3)[GlcNAc(b1-3)Gal(b1-4)GlcNAc(b1-3)]GalNAc
# In short: as §1
# [18] = target: GlcNAc(b1-3)Gal(b1-4)GlcNAc(b1-6)[Gal(b1-3)]GalNAc
# In short: as §1
# [19] = target: GlcNAc(b1-3)Gal(b1-4)GlcNAc(b1-6)[GlcNAc(b1-3)Gal(b1-3)]GalNAc
# In short: as §1
# [20] = target: GlcNAc(b1-3)Gal(b1-4)GlcNAc(b1-6)[GlcNAc(b1-3)]Gal(b1-4)GlcNAc
# In short: as §1
# GlcNAc(b1-3)GalNAc = target: GlcNAc(b1-3)GalNAc
# In short: as §1
# GlcNAc(b1-3)Man = target: GlcNAc(b1-3)Man
# In short: as §1
# [21] = target: GlcNAc(b1-3)[GlcNAc(b1-4)][GlcNAc(b1-6)]GlcNAc
# In short: as §1
# [22] = target: GlcNAc(b1-3)[GlcNAc(b1-6)]Gal(b1-4)GlcNAc
# In short: as §1
# [23] = target: GlcNAc(b1-3)[GlcNAc(b1-6)]GalNAc
# In short: as §1
# [24] = target: GlcNAc(b1-4)Gal(b1-4)GlcNAc
# In short: as §1
# GlcNAc(b1-4)GlcNAc = target: GlcNAc(b1-4)GlcNAc
# In short: as §1
# [25] = target: GlcNAc(b1-4)GlcNAc(b1-4)GlcNAc
# In short: as §1
# [26] = target: GlcNAc(b1-4)GlcNAc(b1-4)GlcNAc(b1-4)GlcNAc(b1-4)GlcNAc
# In short: as §1
# [27] = target: GlcNAc(b1-4)GlcNAc(b1-4)GlcNAc(b1-4)GlcNAc(b1-4)GlcNAc(b1-4)GlcNAc
# In short: as §1
# [28] = target: GlcNAc(b1-4)[GlcNAc(b1-6)]GalNAc
# In short: as §1
# [29] = target: GlcNAc(b1-6)Gal(b1-4)GlcNAc
# In short: as §1
# GlcNAc(b1-6)GalNAc = target: GlcNAc(b1-6)GalNAc
# In short: as §1
# [30] = target: GlcNAc6S(b1-3)Gal(b1-4)GlcNAc
# In short: as §1
# Kdn(a2-3)Gal(b1-3)GalNAc = target: Kdn(a2-3)Gal(b1-3)GalNAc
# In short: as §1
# Kdn(a2-3)Gal(b1-3)GlcNAc = target: Kdn(a2-3)Gal(b1-3)GlcNAc
# In short: as §1
# Kdn(a2-3)Gal(b1-4)Glc = target: Kdn(a2-3)Gal(b1-4)Glc
# In short: as §1
# Kdn(a2-3)Gal(b1-4)GlcNAc = target: Kdn(a2-3)Gal(b1-4)GlcNAc
# In short: as §1
# [31] = target: Kdn(a2-3)Gal(b1-4)[Fuc(a1-3)]GlcNAc
# In short: as §1
# Kdn(a2-6)Gal(b1-4)GlcNAc = target: Kdn(a2-6)Gal(b1-4)GlcNAc
# In short: as §1
# [32] = target: Man(a1-2)Man(a1-2)Man(a1-3)Man
# In short: as §1
# [33] = target: Man(a1-2)Man(a1-2)Man(a1-6)[Man(a1-3)]Man
# In short: as §1
# Man(a1-2)Man(a1-3)Man = target: Man(a1-2)Man(a1-3)Man
# In short: as §1
# [34] = target: Man(a1-2)Man(a1-3)[Man(a1-2)Man(a1-6)]Man
# In short: as §1
binder,measurement,setting,value
B1,glycan array binding signal (z-score),GlcNAc(b1-3)Gal(b1-4)Glc,-0.201
same,glycan array binding signal (z-score),[1],-0.264
same,glycan array binding signal (z-score),[2],-0.271
same,glycan array binding signal (z-score),[3],-0.237
same,glycan array binding signal (z-score),[4],-0.08
same,glycan array binding signal (z-score),[5],-0.343
same,glycan array binding signal (z-score),[6],-0.013
same,glycan array binding signal (z-score),[7],-0.252
same,glycan array binding signal (z-score),[8],-0.351
same,glycan array binding signal (z-score),[9],-0.338
same,glycan array binding signal (z-score),[10],-0.197
same,glycan array binding signal (z-score),[11],-0.258
same,glycan array binding signal (z-score),[12],-0.244
same,glycan array binding signal (z-score),[13],-0.262
same,glycan array binding signal (z-score),[14],-0.3
same,glycan array binding signal (z-score),[15],-0.302
same,glycan array binding signal (z-score),[16],-0.309
same,glycan array binding signal (z-score),[17],-0.117
same,glycan array binding signal (z-score),[18],-0.294
same,glycan array binding signal (z-score),[19],-0.267
same,glycan array binding signal (z-score),[20],-0.336
same,glycan array binding signal (z-score),GlcNAc(b1-3)GalNAc,-0.001
same,glycan array binding signal (z-score),GlcNAc(b1-3)Man,3.03
same,glycan array binding signal (z-score),[21],-0.303
same,glycan array binding signal (z-score),[22],-0.238
same,glycan array binding signal (z-score),[23],-0.217
same,glycan array binding signal (z-score),[24],-0.072
same,glycan array binding signal (z-score),GlcNAc(b1-4)GlcNAc,10.4
same,glycan array binding signal (z-score),[25],-0.144
same,glycan array binding signal (z-score),[26],0.03
same,glycan array binding signal (z-score),[27],0.061
same,glycan array binding signal (z-score),[28],-0.272
same,glycan array binding signal (z-score),[29],-0.067
same,glycan array binding signal (z-score),GlcNAc(b1-6)GalNAc,-0.018
same,glycan array binding signal (z-score),[30],-0.146
same,glycan array binding signal (z-score),Kdn(a2-3)Gal(b1-3)GalNAc,0.37
same,glycan array binding signal (z-score),Kdn(a2-3)Gal(b1-3)GlcNAc,-0.39
same,glycan array binding signal (z-score),Kdn(a2-3)Gal(b1-4)Glc,1.02
same,glycan array binding signal (z-score),Kdn(a2-3)Gal(b1-4)GlcNAc,-0.304
same,glycan array binding signal (z-score),[31],0.935
same,glycan array binding signal (z-score),Kdn(a2-6)Gal(b1-4)GlcNAc,-0.034
same,glycan array binding signal (z-score),[32],1.49
same,glycan array binding signal (z-score),[33],-0.391
same,glycan array binding signal (z-score),Man(a1-2)Man(a1-3)Man,0.056
same,glycan array binding signal (z-score),[34],-0.274
